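Method: 48-hour compound exposure of cells in 96-well plates, five concentrations, linear interpolation of endpoints. GI50 is the concentration that inhibits growth by half.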 Activity calls are given as the source filed them. No stated cut-off is given here; in the data, active = GI50 up to about 1.1 µM and inactive = higher.
The molecules below were run on NCI-H322M (assay: NCI-60 cell line screen, 48 h).
C[Si](C)(c1ccc(C(=O)O)cc1)c1ccc(C(=O)O)cc1 was tested, and the GI50 was inactive: > 100 µM.
O=C(CN1C(=O)c2ccccc2C1=O)C(O)CN1C(=O)c2ccccc2C1=O (centres undefined) was tested, and the GI50 was inactive: > 100 µM.
In the case of Cc1ccc(NC(=O)C(=O)CC(=O)c2sc(Nc3c(C)cccc3C)nc2C)cc1C, the GI50 is reported as inactive: > 100 µM.
For CCOC1=C2N=C(Cc3ccccc3F)N=C2C(=O)c2ccccc21, the GI50 was inactive: > 100 µM.
With O=C(NCCCCCCCCNC(=O)c1cnc2ccccc2n1)c1cnc2ccccc2n1 the GI50 was inactive: > 100 µM.
In the case of CCCCCCC(=O)O[C@H]1CC[C@H]2[C@@H]3CCC4C/C(=N/NC(=O)c5cccc6c(=O)c7ccccc7[nH]c56)C=C(C)[C@]4(C)[C@H]3CC[C@]12C (some centres undefined), the GI50 is reported as inactive: > 25 µM.
CN(C)Cc1c(O)ccc2c1c1c(n2C)C(=O)c2ccccc2C1=O was tested, and the GI50 was inactive: 8.93 µM.
O=C(O)[C@H](CCC[C@H]1C(=O)O[C@H](c2ccccc2)[C@H](c2ccccc2)N1C(=O)OCc1ccccc1)N[C@@H](c1ccccc1)[C@H](O)c1ccccc1 was tested, and the GI50 was inactive: 27.9 µM.
In the case of COC(=O)Nc1nc(=O)c2ccccc2[nH]1, the GI50 is reported as inactive: > 100 µM.
O=c1[nH]c(=O)n(COCCO)c2ccc(Br)cc12 was tested, and the GI50 was inactive: > 100 µM.
For CCOC(=O)/C(=C\NCc1ccc2c(c1)OCO2)c1nc2ccccc2[nH]1, the GI50 was inactive: 46 µM.
In the case of CN1C(c2ccccc2)CC(O)CC1c1ccccc1 (centres undefined), the GI50 is reported as inactive: > 100 µM.
COc1c(C)cc(O)cc1C=O was tested, and the GI50 was inactive: > 100 µM.
CCc1cccc(C)c1NS(=O)(=O)c1ccccc1 was tested, and the GI50 was inactive: > 100 µM.
For CC(C)(CNC(=O)/C(Cl)=C(/Cl)C(=O)O)CNC(=O)/C(Cl)=C(/Cl)C(=O)O, the GI50 was inactive: > 100 µM.
For Cc1cc(C)c2c(=N)c3ccccc3n(CCCCCCO)c2n1, the GI50 was inactive: 5.41 µM.
O=C1CC(=O)NC(NN2C(=O)CSC2c2ccc(Cl)c(Cl)c2)=N1 (centres undefined) was tested, and the GI50 was inactive: > 100 µM.
In the case of CCCCCCCC(=O)OC(CBr)COC(=O)C(C)(C)C (centres undefined), the GI50 is reported as inactive: > 100 µM.
O=C(O)c1cc2ccccc2c(/N=N/c2ccc(S(=O)(=O)Nc3ncccn3)cc2)c1O was tested, and the GI50 was inactive: > 100 µM.
In the case of CNC1C(O)C(NC)C2OC3(O)C(=O)CC(C)OC3OC2C1O (centres undefined), the GI50 is reported as inactive: > 100 µM.
COc1ccc(C2OC(=O)c3ccc4ccccc4c32)c(C)c1 (centres undefined) was tested, and the GI50 was inactive: 24.5 µM.
In the case of CC1CC/C(=C\c2ccc(F)cc2)C2=C1C(c1ccc(F)cc1)n1c(s/c(=C/c3cccc(Br)c3)c1=O)=N2 (centres undefined), the GI50 is reported as inactive: > 100 µM.
For COc1cc([C@@H]2c3cc4c(cc3[C@@H](NC(=O)c3ccc(OC(C)=O)cc3)C3COC(=O)[C@@H]32)OCO4)cc(OC)c1O (some centres undefined), the GI50 was inactive: 18.3 µM.
For O=C(/C=C/c1ccco1)c1cccc(C(=O)/C=C/c2ccco2)n1, the GI50 was inactive: 49.8 µM.
For O=C1c2c(O)cccc2C(C(=O)CCCCCC(=O)C2c3cccc(O)c3C(=O)c3c(O)cccc32)c2cccc(O)c21, the GI50 was inactive: 5.07 µM.
With c1ccc(C2N3CCCCC3[C@@H]3c4[nH]c5ccccc5c4CCN23)nc1 (some centres undefined) the GI50 was inactive: 37.2 µM.
With Cc1ccc2sc3ccc(N)cc3c(=O)c2c1 the GI50 was inactive: 35.2 µM.
For CCOC(=O)CCC(NC(=O)c1ccc(CNc2nc3cc(N)cc(N)c3nc2-c2ccccc2)cc1)C(=O)OCC (centres undefined), the GI50 was inactive: > 47.1 µM.
In the case of O=C/C=C/c1ccco1, the GI50 is reported as inactive: > 100 µM.
With COc1cccc2nc3c(C(=O)NCCN(C)C)cccc3nc12 the GI50 was inactive: 6.79 µM.
For COc1cc(Br)c(/C=N\c2cccc3ccc(OS(=O)(=O)c4cccc([N+](=O)[O-])c4)cc23)cc1OC, the GI50 was inactive: > 100 µM.
In the case of CC(C)(C)OC(=O)N/N=C(/N)Cc1ccccc1, the GI50 is reported as inactive: > 100 µM.
In the case of c1ccc2sc(C3(N4CCC5(CC4)OCCO5)CCCCC3)cc2c1, the GI50 is reported as inactive: > 100 µM.
In the case of C=C(C(=O)O[C@H]1C(=O)C2=C(C)CCC3C(=C)C(=O)O[C@@H]3C2[C@]1(C)O)C1CC[C@]2(C)CCCC(=C)[C@H]2C1 (some centres undefined), the GI50 is reported as inactive: 15.8 µM.

— ChEMBL document CHEMBL1201862, “PubChem BioAssay data set” (2004)
